Some of the results follow. The full chains were built here from the parent and the listed change. Values near 0.05 are background.
B1: TEV protease; numbered along this chain (parent)
chain: MGESLFKGPRDYNPISSSICHLTNESDGHTTSLYGIGFGPFIITNKHLFRRNNGTLVVQSLHGVFKVKDTTTLQQHLVDGRDMIIIRMPKDFPPFPQKLKFREPQREERICLVTTNFQTKSMSSMVSDTSCTFPSGDGIFWKHWIQTKDGQCGSPLVSTRDGFIVGIHSASNFTNTNNYFTSVPKNFMELLTNQEAQQWVSGWRLNADSVLWGGHKVFMVKPEEPFQPVKEATQL

Variants of: B1
Test: raw area under fraction-flipped curve 0-4 h after induction (AUC4h, not background-subtracted), DNA-recorder readout of cleavage of the substrate (dimensionless); higher = more cleavage of the substrate by the protease variant
Details: temperature: 34 °C; time window: 0-4 h after rhamnose induction
Method: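 In vivo DNA recorder in E. coli TOP10(DE3) ΔrhaA at 34 °C. Each TEVp single-site mutant (parent TEVp 0) is paired with a single-site variant of the 7-mer TEVs (canonical ENLYFQ|S). The substrate sits between flexible linkers in a Bxb1-sfGFP-TEVs-SsrA fusion, so cleavage stabilises Bxb1 and speeds flipping of a recombination array, read by NGS. The value is the raw area under the fraction-flipped curve over 0-4 h after rhamnose induction (AUC4h), with ≥20 reads per time point. It is not background-subtracted; inactive controls average about 0.047.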
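Note: Bxb1 expression induced with 0.2% (w/v) L-rhamnose at OD600 near 0.5, cultures sampled hourly, flipped fraction per protease–substrate barcode pair counted by paired-end Illumina sequencing.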

Variant | area with substrate EALYFQS | area with substrate ECLYFQS | area with substrate EELYFQS | area with substrate EGLYFQS | area with substrate EILYFQS | area with substrate ELLYFQS | area with substrate ETLYFQS | area with substrate EYLYFQS | area with substrate EMLYFQS | area with substrate EQLYFQS | area with substrate ERLYFQS | area with substrate ESLYFQS | area with substrate EVLYFQS | area with substrate EWLYFQS | area with substrate EDLYFQS | area with substrate EHLYFQS | area with substrate EKLYFQS | area with substrate EFLYFQS | area with substrate EPLYFQS
T132H | 0.0698 | 0.0704 | 0.101 | 0.0653 | 0.0701 | 0.0752 | 0.0845 | 0.0715 | – | – | – | – | – | – | – | – | – | – | –
T132P | 0.0621 | 0.0661 | – | – | – | – | – | – | 0.0833 | 0.0652 | 0.0669 | 0.0634 | 0.0629 | 0.0624 | – | – | – | – | –
N178T | 0.0489 | 0.063 | 0.0795 | – | 0.0749 | – | 0.0777 | 0.0743 | 0.0682 | – | 0.0681 | 0.0733 | 0.0688 | 0.0694 | 0.101 | 0.121 | 0.0525 | – | –
F187L | 0.111 | 0.0959 | – | 0.0832 | 0.0735 | 0.105 | 0.115 | – | 0.15 | 0.116 | 0.108 | 0.101 | 0.103 | – | 0.139 | 0.126 | 0.116 | 0.0885 | 0.101
D149C | 0.122 | 0.0924 | – | – | – | – | – | – | 0.125 | 0.106 | 0.0896 | – | 0.0997 | – | – | 0.0946 | 0.118 | – | –
P96G | 0.124 | 0.0883 | – | – | 0.0988 | 0.0847 | – | – | 0.126 | – | – | 0.0858 | – | – | 0.153 | 0.106 | 0.131 | – | –
Q227Y | 0.108 | 0.115 | – | – | – | 0.0897 | 0.115 | – | – | – | 0.09 | 0.0957 | 0.122 | 0.0771 | 0.105 | – | 0.0941 | – | 0.11
I139H | 0.117 | 0.0988 | 0.12 | 0.0884 | 0.119 | – | – | 0.106 | 0.101 | – | 0.0865 | 0.116 | 0.0814 | – | 0.128 | – | – | 0.105 | –
I139D | 0.12 | 0.0948 | 0.13 | – | 0.0726 | – | 0.112 | 0.103 | – | 0.134 | – | 0.104 | 0.122 | – | 0.115 | – | 0.117 | 0.1 | 0.0719
I139L | 0.138 | 0.0929 | – | 0.154 | 0.124 | 0.103 | 0.155 | – | – | 0.114 | 0.149 | 0.106 | 0.108 | 0.135 | 0.129 | 0.123 | 0.109 | 0.1 | 0.136
M219K | 0.0665 | 0.0733 | 0.0741 | 0.0651 | 0.0765 | 0.0539 | – | – | – | 0.0556 | 0.0577 | 0.0687 | 0.0663 | 0.0841 | 0.0704 | 0.0624 | – | – | 0.084
D27Y | 0.112 | 0.0858 | – | – | 0.0834 | 0.0909 | – | 0.0734 | 0.09 | 0.101 | 0.0876 | 0.1 | 0.0863 | – | 0.0938 | 0.0866 | 0.0809 | 0.1 | 0.0902
F41C | 0.106 | 0.0992 | 0.11 | 0.108 | 0.0887 | 0.0854 | 0.128 | 0.106 | 0.125 | – | – | 0.106 | 0.112 | 0.105 | 0.119 | – | 0.0971 | 0.108 | –
K142C | 0.0914 | 0.0934 | 0.128 | 0.0933 | 0.0858 | 0.0869 | 0.0715 | 0.0995 | – | 0.11 | 0.0896 | 0.0873 | 0.0846 | 0.136 | 0.111 | – | 0.0862 | 0.0716 | 0.138
T55K | 0.117 | 0.0944 | 0.184 | 0.107 | 0.0941 | – | – | 0.102 | 0.107 | 0.122 | 0.097 | 0.109 | 0.0725 | 0.0932 | 0.12 | 0.147 | 0.0987 | 0.105 | 0.14
K98Y | 0.113 | 0.097 | – | 0.111 | 0.108 | 0.109 | 0.123 | 0.142 | 0.109 | 0.133 | 0.0988 | 0.109 | 0.103 | 0.112 | – | 0.112 | – | – | 0.129
R87P | 0.0608 | 0.0496 | – | – | 0.0565 | 0.0582 | – | – | 0.0546 | – | 0.0587 | 0.0624 | – | – | – | – | – | – | –
I42P | 0.0506 | 0.0493 | 0.0419 | 0.0617 | 0.0517 | 0.0526 | 0.0691 | 0.0509 | 0.038 | 0.0418 | 0.0394 | 0.0367 | 0.05 | 0.0448 | 0.0441 | 0.0421 | – | 0.0445 | –
I42T | 0.0634 | 0.0568 | – | – | 0.0523 | – | – | – | 0.0622 | 0.0769 | – | 0.0621 | – | – | 0.0744 | 0.075 | 0.0607 | – | 0.0625
I42E | 0.0334 | 0.0435 | 0.0299 | 0.0385 | 0.0346 | – | 0.0535 | 0.0422 | – | – | 0.0185 | 0.0535 | 0.045 | 0.0477 | – | 0.0445 | 0.0443 | 0.0511 | 0.0432
N175V | 0.0671 | 0.0563 | 0.0648 | 0.0579 | 0.0681 | – | 0.0562 | 0.0628 | 0.0705 | 0.0667 | 0.0729 | 0.0701 | 0.0758 | 0.0907 | 0.0605 | 0.0606 | 0.0649 | 0.0539 | –
L190Q | 0.124 | 0.098 | 0.109 | – | – | – | – | 0.0947 | – | – | – | 0.0968 | – | – | – | – | – | – | –
H143T | 0.0973 | 0.0759 | – | – | 0.0793 | – | 0.0896 | – | 0.0855 | – | 0.116 | 0.074 | 0.0781 | – | 0.0929 | – | – | – | –
H143I | 0.0774 | 0.0652 | 0.0653 | – | – | – | – | – | 0.082 | 0.0706 | – | – | 0.0554 | 0.0749 | – | – | 0.0508 | – | 0.064
S171D | 0.0471 | – | 0.056 | 0.0475 | 0.0499 | 0.063 | – | – | 0.0567 | 0.0595 | 0.066 | 0.0646 | 0.0524 | – | 0.0647 | 0.0592 | 0.0677 | – | 0.0317
N193W | 0.0692 | 0.0702 | – | 0.0613 | – | 0.0803 | – | – | – | – | 0.0885 | – | 0.063 | – | – | – | 0.061 | – | –
D91V | 0.112 | 0.0932 | – | – | 0.0901 | – | – | – | – | – | 0.0872 | 0.105 | 0.0798 | 0.067 | 0.081 | 0.107 | – | 0.0914 | 0.0858
F140D | 0.0313 | 0.0528 | 0.0067 | 0.066 | 0.0616 | 0.047 | – | – | 0.0556 | 0.0619 | 0.0897 | 0.0493 | 0.0563 | – | 0.0654 | 0.0688 | 0.0541 | 0.0587 | 0.0717

From the supplement of paper PMC12217912
